# Source: PubChem BioAssay AID686979 (National Center for Advancing Translational Sciences (NCATS), 2013)
# Values joined by “and” are separate entries in the source; they are usually repeats but may differ in a detail not shown here. Identical values can stand only once. Screen size: about 420,000 compounds; about 50,000 (12%) were called active. This list was built around the results that the source calls inconclusive (neither active nor inactive); the mix of calls is not that of the screen. Calls come from the whole dose curve; as a rule, active = well fitted inhibition curve with a large enough effect; inconclusive = small, poorly fitted or top-dose-only effect; inactive = flat fitted curve, though single readings scatter. Potencies beside an inconclusive call are fits to weak or partial responses and may not hold up.
# Assay: qHTS for Inhibitors of human tyrosyl-DNA phosphodiesterase 1 (TDP1): qHTS in cells in presence of CPT; note: nearly all actives have a fitted effect of over 55% in size
# Conditions: chicken DT40 Tdp1-/-;hTDP1 cells + 20 nM CPT, ATP luminescence, 48 h; activity change, negative = growth inhibition: at 46.2 µM (top of the series) unless noted
# How it was run: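 Chicken DT40 Tdp1-/- cells complemented with human TDP1, 400 cells/well, exposed to compounds plus 20 nM camptothecin for at least 48 h at 37 C; viability read as ATP content by CellTiter-Glo luminescence.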
# % is set by controls: 0 for no effect and ±100 for the full control effect; potency is the fitted concentration of half-maximal effect; tags give direction and shape of the fitted curve.
Compound,Potency,"activity change, negative = growth inhibition"
CCn1ncc(CN2CCCC(C(=O)c3cccc(OC(C)C)c3)C2)c1C (stereo not given),"inconclusive: 25.9 µM [inhibitor, single point]",–
Cc1ccc(-n2ncc3c(N4CCCCCC4)ncnc32)cc1,"inconclusive: 29.1 µM [inhibitor, single point]",–
COCCn1nnnc1C(C(C)C)N(Cc1cccnc1)Cc1ccccc1Cl (stereo not given),"inconclusive: 20.6 µM [inhibitor, single point]",–
Cc1csc(NC(=O)C2CCN(S(=O)(=O)c3cccs3)CC2)n1,"inconclusive: 29.1 µM [inhibitor, single point]",–
CCN(c1cccc(C)c1)S(=O)(=O)c1ccc2c3c(cccc13)C(=O)N2,"inconclusive: 35.5 µM [inhibitor, single point]",–
CS(=O)(=O)c1ccc(Nc2nc(C(N)Cc3ccc(F)cc3)cs2)cc1 (stereo not given),active: 16.4 µM,–
COc1ccccc1S(=O)(=O)N(C)C[C@@H]1Oc2ncc(-c3ccc(C)cc3)cc2C(=O)N([C@H](C)CO)C[C@@H]1C,"inconclusive: 18.4 µM [inhibitor, single point]",–
O=C(Nc1ccccc1N1CCCC1)c1cc2ccccc2o1,"inconclusive: 29.1 µM [inhibitor, single point]",–
COc1cc2c(cc1OC)C1CCc3cc4c(cc3C1N=C2)OCO4 (stereo not given),active: 16.4 µM,–
Cc1ncc(N=Nc2ccccc2)c(-c2ccccc2)n1,"inconclusive: 29.1 µM [inhibitor, single point]",–
Cc1ccc(Cn2c(=O)c3cccnc3n(CC(=O)Nc3cccc(C(F)(F)F)c3)c2=O)cc1,"inconclusive: 16.4 µM [inhibitor, single point] and inconclusive: 29.1 µM [inhibitor, single point]",–
O=C(c1ccc(Cl)cc1)c1cnc2ccccn12,inactive,–
C[C@@H]1CCCCO[C@H](CN(C)Cc2ccc(C(F)(F)F)cc2)[C@H](C)CN([C@@H](C)CO)C(=O)c2cc(NC(=O)Cc3ccccc3)ccc2O1,active: 11.6 µM,–
COc1ccc2nc(NC(=O)c3cccc(N4C(=O)CCC4=O)c3)sc2c1,"inconclusive: 32.6 µM [inhibitor, single point]",–
CCc1cccc(NC(=O)Nc2ccc3c(c2)N(C)C(=O)c2ccccc2S3)c1,"inconclusive: 20.6 µM [inhibitor, single point]",–
c1ccc(-n2ncc3c(NC4CCCC4)ncnc32)cc1,"inconclusive: 29.1 µM [inhibitor, single point]",–
S=C1COC(c2ccccc2)N1c1ccccc1 (stereo not given),inactive,–
CC1CCN(C2CC(=O)N(c3ccc(Br)cc3Br)C2=O)CC1 (stereo not given),"inconclusive: 20.6 µM [inhibitor, single point]",–
O=C(c1ccc(Cl)cc1)c1cccc(O)c1,"inconclusive: 29.1 µM [inhibitor, single point]",–
C=C[C@H](CC(C)C)N(Cc1ccccc1)S(=O)(=O)N(Cc1ccccc1)[C@@H](C=C)CC(C)C,active: 11.2 µM and active: 13 µM,–
CC1(c2ccc(Cl)cc2Cl)NC(=O)N(CC(=O)N2CCN(C(=O)c3ccco3)CC2)C1=O (stereo not given),"inconclusive: 20.6 µM [inhibitor, single point]",–
Cn1cc(S(=O)(=O)N2CCCCCC2)cc1C(=O)N1CCN(c2ccc(F)cc2)CC1,"inconclusive: 29.1 µM [inhibitor, single point]",–
CC(=O)c1nn(-c2ccc(Cl)cc2)cc1C(=O)c1ccc(C)cc1,inactive,–
CCOc1ccc(/C=C/c2nc(C#N)c(N3CCN(c4ccc(OC)cc4)CC3)o2)cc1,inactive,–

Compound,Potency,"activity change, negative = growth inhibition"
CCC(=O)N1CCc2cc(Br)cc(S(=O)(=O)CCC(=O)NCCc3ccc(OC)c(OC)c3)c21,"inconclusive: 11.6 µM [inhibitor, partial curve]",–
Cc1ccc(NC(=O)C(C)OC(=O)CCC2CCCCC2)cc1 (stereo not given),"inconclusive: 23.1 µM [inhibitor, single point]",–
c1cc2c(cc1C1CCCN1)OCCCO2 (stereo not given),inactive,–
O=C(COc1ccccc1)Nc1ccccc1NS(=O)(=O)c1cccs1,inactive,–
O=C(CN(C(=O)c1csnn1)c1cccc(C(F)(F)F)c1)NCc1ccc(F)cc1,inactive,–
CCOc1cc(/C=C/C(=O)c2ccc(O)cc2)ccc1OCC(=O)N(C)C,"inconclusive: 20.6 µM [inhibitor, single point]",–
CC/C(=C\c1ccc(C(=O)OC)cc1)c1cc(OC)cc2oc3ccccc3c12,"inconclusive: 35.5 µM [inhibitor, single point]",–
CCOc1ccc(NC(=O)c2cc3n(n2)C(C(F)(F)F)CC(c2ccco2)N3)cc1 (stereo not given),inactive,–
Cc1cc(C(=O)C(C)OC(=O)C2=NNC(=O)CC2)c(C)n1-c1ccc(OC(F)F)cc1 (stereo not given),"inconclusive: 29.1 µM [inhibitor, single point]",–
CCCn1c(SCC(=O)Nc2cc(S(=O)(=O)N(C)C)ccc2OC)n[nH]c1=O,inactive,–
CCS(=O)(=O)NCc1c(C)ncc2c1CCN(C(=O)c1csc(-c3cccs3)n1)C2,"inconclusive: 29.1 µM [inhibitor, single point]",–
Cc1cc(=O)n(Nc2ccccc2)c(O)c1C#N,inactive,–
COc1ccc(CN(C)C(=O)c2ccc(NS(=O)(=O)c3ccc(C)c([N+](=O)[O-])c3)cc2)c(OC)c1OC,–,inconclusive: -31.4% [inhibitor]
O=S(=O)(c1ccc(NC(=S)N2CCN(c3ccc(O)cc3)CC2)cc1)N1CCOCC1,"inconclusive: 18.4 µM [inhibitor, single point]",–
COc1ccccc1-c1nccc(NC2CCNCC2)n1,inactive,–
O=C(Nc1ccn(Cc2cccc3ccccc23)n1)c1cccnc1,"inconclusive: 9.2 µM [inhibitor, partial curve, poor fit]",–
COc1ccccc1CNS(=O)(=O)c1ccc2c(c1)NC(=O)C(C)S2 (stereo not given),inactive,–
Fc1ccc(C2c3[nH]c4ccccc4c3CCN2CCCn2cccn2)cc1 (stereo not given),"inconclusive: 7.31 µM [inhibitor, partial curve]",–
O=C(CN1CCC(n2nnc3cc(F)ccc32)CC1)N1CCc2ccccc2C1,"inconclusive: 18.4 µM [inhibitor, single point]",–
NC(=O)CSc1nnc(COc2cccc3ccccc23)o1,inactive,–
O=S(=O)(NCCCCCNS(=O)(=O)c1ccc(F)cc1)c1ccc(F)cc1,active: 11.2 µM,–
Cc1ccc(-n2ncc3c(NCCCOC(C)C)ncnc32)c(C)c1,"inconclusive: 18.4 µM [inhibitor, single point]",–
CC(C)NC(=O)COc1nncc2ccccc12,inactive,–
O=C(NCc1ccc(Cl)cc1)[C@@H]1CCCN1S(=O)(=O)c1ccc(Cl)cc1,"inconclusive: 23.1 µM [inhibitor, single point]",–

Compound,Potency,"activity change, negative = growth inhibition"
Cc1ccc(-n2ncc3c(=O)n(-c4ccc(C)c(C)c4)c(-c4ccco4)nc32)cc1,active: 18.4 µM,–
CC(CCc1ccccc1)NC(=O)Cn1ncc2c3ccccc3n(Cc3ccc(F)cc3)c2c1=O (stereo not given),"inconclusive: 5.8 µM [inhibitor, partial curve]",–
CCCn1c(=O)c2sccc2n2c(CCCC(=O)NCCc3ccc(Cl)cc3)nnc12,"inconclusive: 29.1 µM [inhibitor, single point]",–
Cc1nc2c(OCc3ccc(Cl)cc3Cl)cccn2c1N(C)CC1CC1,active: 16.4 µM,–
COc1ccc(CNc2cccc3[nH]c(C(F)(F)F)nc23)cc1OC,"inconclusive: 29.1 µM [inhibitor, single point]",–
Cc1ccc(CNC(=O)c2cc3sccc3n2Cc2ccc(Cl)cc2)cc1,"inconclusive: 20.6 µM [inhibitor, partial curve]",–
O=C(Nc1cccc(S(=O)(=O)N2CCCCC2)c1)c1c2c(nc3ccccc13)CCN(Cc1ccccc1)C2,active: 20.6 µM,–
CC(C)c1ccc(S(=O)(=O)c2nnn3c2nc(NCCc2ccccc2)c2sccc23)cc1,"inconclusive: 20.6 µM [inhibitor, single point]",–
NC1=NC(=O)/C(=C\c2ccc(-c3ccccc3[N+](=O)[O-])o2)S1,active: 11.2 µM,–
O=C(c1cccc([N+](=O)[O-])c1)N1CCN(c2cccc(Cl)c2)CC1,active: 18.4 µM,–
CCN(CC)CCNC(=O)C12CC3CC(C)(CC(C)(C3)C1)C2,"inconclusive: 9.2 µM [inhibitor, partial curve, poor fit]",–
S=c1[nH]nc(C23CC4CC(CC(C4)C2)C3)n1Cc1ccco1,"inconclusive: 29.1 µM [inhibitor, single point]",–
COc1ccccc1-c1ccnc(-n2ncc(C(=O)N3CCCCC3c3cccnc3)c2C)n1 (stereo not given),–,inactive: 12.6% [at 9.04 µM]
O=c1oc(CCCO)cc2ccc(C#CC3(O)CCCCC3)cc12,"inconclusive: 10.3 µM [inhibitor, partial curve]",–
Cc1nnc2sc(SCc3ccc(Cl)cc3)nn2c1=O,inactive,–
Cc1nn(C(=O)c2cccc([N+](=O)[O-])c2C)c(C)c1S(=O)(=O)N1CCOCC1,inactive,–
CC1(C)Oc2ccccc2OC1(O)c1ccc2ccccc2n1 (stereo not given),"inconclusive: 29.1 µM [inhibitor, single point]",–
Oc1c(Br)cc(Br)cc1CNc1nccs1,inactive,–
COc1ccc(C(=O)NCC(=O)OCC(=O)NC2CCCCCC2)cc1,inactive,–
O=C(CC1CCCC1)N1CCN(S(=O)(=O)c2ccccc2)CC1,inactive,–
O=C(NC1CCCc2c1cnn2-c1ccc(F)cc1F)c1csnn1 (stereo not given),"inconclusive: 23.1 µM [inhibitor, single point]",–
COCCN1C(=O)C(C(=O)OC)CC2=C1CC(C)(C)CC2=O (stereo not given),inactive,–
